This note sets out measurements from the BET-seq Pho4 binding data (Le et al. 2018).

The other results are listed elsewhere or left out. Values were computed here from the reads of four pooled replicates and scatter widely.

The assay concerns the target T1, Pho4 (S. cerevisiae) (UniProt P07270).
T1 sequence: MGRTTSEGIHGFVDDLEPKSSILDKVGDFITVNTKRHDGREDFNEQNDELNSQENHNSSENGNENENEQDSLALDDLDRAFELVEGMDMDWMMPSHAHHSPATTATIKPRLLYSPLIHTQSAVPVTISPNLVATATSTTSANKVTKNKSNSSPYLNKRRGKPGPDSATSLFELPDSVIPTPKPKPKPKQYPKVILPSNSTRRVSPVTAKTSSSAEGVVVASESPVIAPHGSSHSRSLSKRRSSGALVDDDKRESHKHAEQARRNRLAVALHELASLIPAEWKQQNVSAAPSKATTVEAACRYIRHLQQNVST
Put plainly: relative binding free energy (BET-seq); higher = weaker binding. The conditions noted are these: reference: library average.
Regarding GGGTACACGTGATAGT, the “relative binding free energy” value was found to be 0.34 kcal/mol.
TGTGCCACGTGATATG: the “relative binding free energy” value was determined as 0.03 kcal/mol.
On to CGTTTCACGTGAGTAA, for which the “relative binding free energy” value turned out to be 0.32 kcal/mol.
To CAGGGCACGTGTCGTT belongs 0.03 kcal/mol.
For TTTGACACGTGATGGG, the “relative binding free energy” value is 0.15 kcal/mol.
Turning to GGAAACACGTGGGGCG, the “relative binding free energy” value is -0.02 kcal/mol.
On to TGCGGCACGTGCTGTG, for which the “relative binding free energy” value was -0.19 kcal/mol.
To AATCGCACGTGAGGGG belongs 0.21 kcal/mol; to AGCGGCACGTGGTCTG, -0.18 kcal/mol.
With AGAGGCACGTGACGGT, the “relative binding free energy” value was -0.06 kcal/mol.
As for AGGGTCACGTGCGTAC, the “relative binding free energy” value stood at 0.05 kcal/mol.
ACGTTCACGTGGGTAG: the “relative binding free energy” value is 0.1 kcal/mol.
The same measure for TTTATCACGTGTGATG: 0.27 kcal/mol; for ATGGACACGTGGAGTA: 0.1 kcal/mol.
In the case of TTGTGCACGTGGAGAT, the “relative binding free energy” value worked out at 0.01 kcal/mol.
GTGAGCACGTGTGTTC: the “relative binding free energy” value is -0.18 kcal/mol.
As to GTAGGCACGTGTATAA, the “relative binding free energy” value is -0.03 kcal/mol.
The same measure for GTGATCACGTGCGTTG: -0.01 kcal/mol; for TGGACCACGTGTTTTT: 0.05 kcal/mol; for GTGCACACGTGGCAGG: 0.04 kcal/mol.
As to ATTTACACGTGTGGTA, the “relative binding free energy” value was 0.09 kcal/mol.
Consider TTGGGCACGTGTTCAG, for which the “relative binding free energy” value was -0.2 kcal/mol.
The same measure for TTTTGCACGTGGTGGC: 0.02 kcal/mol; for GGATACACGTGGGGCT: 0.01 kcal/mol.
As for TTTGGCACGTGGCGTT, the “relative binding free energy” value was -0.11 kcal/mol.
The same measure for TTCAACACGTGTTAGG: 0.09 kcal/mol; for GCTTTCACGTGACGGT: 0.3 kcal/mol; for TTGCACACGTGTTAGA: 0.15 kcal/mol.
Consider TTTGGCACGTGGGGCC, for which the “relative binding free energy” value was -0.28 kcal/mol.
For ATGGGCACGTGCGGTC, the “relative binding free energy” value is -0.06 kcal/mol.
Take GATGGCACGTGTTGTC: the “relative binding free energy” value was -0.01 kcal/mol.
For TGTAACACGTGGCGTT, the “relative binding free energy” value is -0.15 kcal/mol.
TTATTCACGTGCGTGC: the “relative binding free energy” value came to 0.13 kcal/mol.
With GCTGTCACGTGGATAT, the “relative binding free energy” value came out at 0.12 kcal/mol.
With ATCGCCACGTGTGTTG, the “relative binding free energy” value is -0.02 kcal/mol.
As for TGTCTCACGTGAGAGG, the “relative binding free energy” value was determined as 0.18 kcal/mol.
In the case of TTTAACACGTGTTTTC, the “relative binding free energy” value is -0.03 kcal/mol.
Consider GGTCGCACGTGCGTTA, for which the “relative binding free energy” value is -0.07 kcal/mol.
On to ACTAGCACGTGATGTG, for which the “relative binding free energy” value stood at 0.04 kcal/mol.
For AGGTTCACGTGGGTAT, the “relative binding free energy” value is 0.08 kcal/mol.
To TGTGTCACGTGTCAAG belongs 0.07 kcal/mol.
The same measure for GAAAGCACGTGTGGTG: -0.1 kcal/mol.
Take TTTTACACGTGGTCTG: the “relative binding free energy” value is -0.03 kcal/mol.
To GATTGCACGTGAGTCG belongs 0.49 kcal/mol; to GGACGCACGTGGGTAT, -0.16 kcal/mol; to TGTGGCACGTGGCGAT, -0.07 kcal/mol.
As to CATTACACGTGGTCGT, the “relative binding free energy” value came out at 0.06 kcal/mol.
Regarding GGTATCACGTGCTGGA, the “relative binding free energy” value came to 0.18 kcal/mol.
As for TCATGCACGTGTGGAG, the “relative binding free energy” value was 0.09 kcal/mol.
For the sequence GGTGTCACGTGGCGAC, the “relative binding free energy” value stood at 0.11 kcal/mol.
Regarding TGGGTCACGTGGGTCC, the “relative binding free energy” value turned out to be 0.03 kcal/mol.
To GCTAACACGTGGGTGT belongs -0.16 kcal/mol; to ATGTACACGTGTGTAG, 0.04 kcal/mol; to GAGGGCACGTGTCGGA, -0.02 kcal/mol.
The same measure for GAAGGCACGTGTTAAG: 0.1 kcal/mol; for AGCGGCACGTGTATAT: 0.01 kcal/mol; for GGACGCACGTGGAGTG: -0.14 kcal/mol.
To GGAATCACGTGCTGGT belongs 0.11 kcal/mol.
TATGGCACGTGTTGTG: the “relative binding free energy” value was -0.11 kcal/mol.
On to TCTTTCACGTGGGGGC, for which the “relative binding free energy” value was 0.14 kcal/mol.
Turning to TCATGCACGTGGTGTT, the “relative binding free energy” value was -0.14 kcal/mol.
On to AAGAGCACGTGTTGGA, for which the “relative binding free energy” value is -0.21 kcal/mol.
The same measure for CTGTTCACGTGTGAGT: 0.39 kcal/mol.
To TCTGTCACGTGGGCGG belongs -0.04 kcal/mol; to GGTTCCACGTGGTTCT, 0.09 kcal/mol.
Turning to GGTGACACGTGATATG, the “relative binding free energy” value turned out to be 0.13 kcal/mol.
The same measure for CTGTTCACGTGAAGTA: 0.41 kcal/mol; for AGATGCACGTGGGGAG: -0.2 kcal/mol; for TTTAGCACGTGTAATC: 0.04 kcal/mol.
To AAATTCACGTGGGTTA belongs 0.24 kcal/mol.
To TGTCTCACGTGGTGGA belongs 0.22 kcal/mol; to GTGTTCACGTGGCGTC, 0.13 kcal/mol.
In the case of GATTGCACGTGTGTCT, the “relative binding free energy” value is 0.23 kcal/mol.
As for TGTAGCACGTGGCCGG, the “relative binding free energy” value was -0.32 kcal/mol.
To GAGTTCACGTGTGCTG belongs 0.35 kcal/mol; to AGTGTCACGTGACAGG, 0.1 kcal/mol.
Turning to GGCTACACGTGGGTAT, the “relative binding free energy” value was determined as 0.09 kcal/mol.
For TCAGACACGTGGGTGT, the “relative binding free energy” value was found to be 0.02 kcal/mol.
The same measure for CAGGCCACGTGGGTGG: -0.32 kcal/mol; for TTGTGCACGTGTAGAT: 0.23 kcal/mol; for TCAGTCACGTGTTGAA: 0.14 kcal/mol.
To TAGGTCACGTGTGGTC belongs 0.19 kcal/mol; to AGTGCCACGTGTAGTA, -0.08 kcal/mol.
In the case of CGGTGCACGTGTTTAA, the “relative binding free energy” value is 0.08 kcal/mol.
For the sequence CAGGACACGTGGTTTT, the “relative binding free energy” value came to 0.02 kcal/mol.
For the sequence GAGGTCACGTGCATGT, the “relative binding free energy” value is 0.28 kcal/mol.
Turning to ACTTACACGTGTATGT, the “relative binding free energy” value stood at 0.12 kcal/mol.
For GGGGTCACGTGTACTT, the “relative binding free energy” value amounted to 0.22 kcal/mol.
With GGGGGCACGTGGTCGC, the “relative binding free energy” value is -0.25 kcal/mol.
Consider TGAGACACGTGTCGGT, for which the “relative binding free energy” value is 0.01 kcal/mol.
Take AGACGCACGTGGGAGT: the “relative binding free energy” value was -0.19 kcal/mol.
With CTTGGCACGTGCCGGG, the “relative binding free energy” value was -0.29 kcal/mol.
As for GGATGCACGTGTTCTA, the “relative binding free energy” value is 0.1 kcal/mol.
The same measure for CTAGTCACGTGATTGA: 0.24 kcal/mol; for AGGGGCACGTGCATGG: -0.21 kcal/mol; for TAGGGCACGTGGTGTA: -0.17 kcal/mol.
To AGGTTCACGTGAAATC belongs 0.56 kcal/mol; to TTGAACACGTGGGTGA, -0.06 kcal/mol.
With TAAGGCACGTGTGCGT, the “relative binding free energy” value came to 0 kcal/mol.
In the case of TTGGTCACGTGCTTCT, the “relative binding free energy” value turned out to be 0.13 kcal/mol.
Regarding GATCTCACGTGGGGTA, the “relative binding free energy” value was 0.05 kcal/mol.
As to GTGTGCACGTGACAGG, the “relative binding free energy” value is 0.08 kcal/mol.
The same measure for CGTTGCACGTGTAGCG: 0.06 kcal/mol; for TTGAGCACGTGGAGGA: -0.23 kcal/mol; for TTGGGCACGTGCGCAT: -0.21 kcal/mol.
To GGCTACACGTGCGGTT belongs 0.06 kcal/mol.
With GGTAGCACGTGTCTAG, the “relative binding free energy” value is -0.08 kcal/mol.
To CGTAACACGTGTTTGT belongs -0.04 kcal/mol; to TATGGCACGTGTATGA, -0.18 kcal/mol; to GTTAGCACGTGAGGTA, 0.3 kcal/mol.
As for CTAGTCACGTGAGTTT, the “relative binding free energy” value worked out at 0.25 kcal/mol.
For the sequence TTTTTCACGTGCAGGC, the “relative binding free energy” value was found to be 0.27 kcal/mol.
In the case of AGTATCACGTGAGAAG, the “relative binding free energy” value worked out at 0.34 kcal/mol.
For the sequence TTATGCACGTGATTTT, the “relative binding free energy” value was 0.16 kcal/mol.
On to TAGGCCACGTGTTATG, for which the “relative binding free energy” value is -0.06 kcal/mol.
